Laboratory results taken from PubChem BioAssay (NCATS).
Several values for one entry are separate records, joined by “and”; a condition that tells them apart may be missing. Identical values can stand only once. The shares of active, inactive and inconclusive entries below differ from those in the screen. For part of these data: Potencies of inconclusive entries are doubtful fits and often do not repeat. Activity calls are given as the source filed them. Calls follow the shape of the dose curve; as a rule, active = well fitted curve in the direction sought with a large enough effect; inconclusive = small, poorly fitted or top-dose-only effect, or another doubt; inactive = no such curve, though single readings can be large; an effect the other way counts as inactive or inconclusive.

Legend:
[1] = Viability qHTS for spleen associated tyrosine kinase inhibitor (SYKi) naive MV4-11 cells (AID 1963823); conditions: MV4-11 AML viability, CellTiter-Glo luminescence, 72 h; viability (% of control): at 45 µM (top of the series); also: nearly all actives have a fitted effect of over 40% in size
Outline: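 Compounds were dispensed acoustically onto plates, MV4-11 cells (SYKi-naive) added at 500 per well, and plates incubated 72 hr at 37 C. CellTiter-Glo was added and luminescence measured after 10 min.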

[2] = Quantitative highthroughput screen to assess conditional lethalithy of NOMO1 cells grown in RPMI1640 with untreated serum (RPMI+s) (AID 1963876); conditions: NOMO1 AML cells in RPMI+serum, CellTiter-Glo viability, 48 h; viability: at 45.8 µM (top of the series); also: nearly all actives have a fitted effect of over 35% in size
Outline: (§1)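 Each medium arm—HPLM with 10% dialyzed FBS, or RPMI1640 with 5 mM glucose and 10% untreated or dialyzed FBS—was screened against an 11-point, 3-fold compound titration for 48 h at 37 °C, with CellTiter-Glo luminescence as endpoint.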

[3] = Quantitative highthroughput screen to assess conditional lethalithy of NOMO1 cells grown in RPMI1640 with dialyzed fetal bovine serum (RPMI+ds) (AID 1963877); also: nearly all actives have a fitted effect of over 30% in size
Outline: as §1

[4] = Quantitative highthroughput screen to assess conditional lethalithy of NOMO1 cells grown in Human Plasma-Like Medium with dialyzed fetal bovine serum (HPLM+ds) (AID 1963878); conditions: NOMO1 AML cells in HPLM+ds, CellTiter-Glo viability, 48 h; viability: at 45.8 µM (top of the series); also: nearly all actives have a fitted effect of over 35% in size
Outline: as §1

[5] = Quantitative highthroughput screen to assess conditional lethalithy of P12 Ichikawa cells grown in Human Plasma-Like Medium with dialyzed fetal bovine serum (HPLM+ds) (AID 1963879); conditions: Potency: viability; also: nearly all actives have a fitted effect of over 35% in size
Outline: as §1

[6] = Quantitative highthroughput screen to assess conditional lethalithy of SEM cells grown in RPMI1640 with unreated serum (RPMI+s) (AID 1963883); conditions: SEM B-ALL cells, CellTiter-Glo viability, 48 h; viability: at 45.8 µM (top of the series); also: nearly all actives have a fitted effect of over 35% in size;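 as to Viability: 100% = DMSO wells and 0% = empty wells without cells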
Outline: as §1

[7] = Cellular viability qHTS for adrenocortical cancer (ACC) cell line SW-13 (AID 1963989); conditions: SW-13 ACC cells viability, CellTiter-Glo, 48 h; activity (max response): active compounds read low; also: nearly all actives have a fitted effect of over 65% in size;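 as to activity (max response): cells grown in serum-free medium with ITS supplement; % is scaled to controls: 0 for no effect and ±100 for the full control effect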
Outline: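 Compound titrations (up to 46 uM final, in DMSO) were applied to SW-13 cells for 48 h at 37C/5% CO2. Reading used CellTiter-Glo after 20 min at room temperature; fitted curves yielded IC50 and efficacy.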

[8] = Quantitative highthroughput screen to assess conditional lethalithy of SEM cells grown in Human Plasma-Like Medium with dialyzed fetal bovine serum (HPLM+ds) (AID 1963882); also: nearly all actives have a fitted effect of over 35% in size
Outline: as §1

[9] = Quantitative highthroughput screen to assess conditional lethalithy of SEM cells grown in RPMI1640 with dialyzed fetal bovine serum (RPMI+ds) (AID 1963884); conditions: SEM B-ALL cells, RPMI+dialyzed FBS, CellTiter-Glo viability, 48 h; viability: at 45.8 µM (top of the series); also: nearly all actives have a fitted effect of over 35% in size
Outline: as §1

[10] = Cellular viability qHTS for adrenocortical cancer (ACC) cell line NCI-H295R (AID 1963990); conditions: CellTiter-Glo ATP luminescence, 48 h; activity change, negative = viability loss: at 46.1 µM (top of the series); also: nearly all actives have a fitted effect of over 60% in size
Outline: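 Readout: CellTiter-Glo luminescence, 20 min RT. Exposure: 48 h, 37C/5% CO2. Cells: NCI-H295R, ITS-DMEM serum-free. Range: up to 46 uM. Analysis: 4PL fit, IC50 plus efficacy.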

[11] = Quantitative highthroughput screen to assess conditional lethalithy of P12 Ichikawa cells grown in RPMI1640 with dialyzed fetal bovine serum (RPMI+ds) (AID 1963880); conditions: Potency: P12-Ichikawa viability; also: nearly all actives have a fitted effect of over 35% in size
Outline: as §1
Potency is read from the fitted curve at half-maximal effect; tags tell the direction and shape of the fitted curve.

CC1(C)[C@H](C(=O)O)N2C(=O)C[C@H]2S1(=O)=O
inconclusive: Potency [3] 9.35 µM [cytotoxic, full curve] | Potency [4] 5.9 µM [cytotoxic, full curve]
active: Potency [2] 8.33 µM
inactive: Potency [1] | Potency [5] | Potency [6] | activity (max response) [7] 9.85%

CN1CCN(CCOc2cc(OC3CCOCC3)c3c(Nc4c(Cl)ccc5c4OCO5)ncnc3c2)CC1
inconclusive: Potency [2] 33.2 µM [cytotoxic, single point] | Potency [3] 20.9 µM [cytotoxic, partial curve] | Potency [4] 5.26 µM [cytotoxic, full curve] | Potency [8] 10.5 µM [cytotoxic, partial curve]
active: Potency [1] 6.51 µM and 5.9 µM | Potency [5] 8.33 µM | Potency [9] 10.5 µM | Potency [10] 31.6 µM

COc1cc(NCc2ccc3nc(N)nc(N)c3c2C)cc(OC)c1OC
active: Potency [3] 10.5 µM | Potency [5] 2.35 µM | Potency [11] 10.5 µM | Potency [10] 14.6 nM and 2.82 µM
inconclusive: Potency [1] 53.1 nM [cytotoxic, full curve] | Potency [2] 33.2 µM [cytotoxic, single point] | Potency [4] 1.18 µM [cytotoxic, full curve] | Potency [8] 1.18 µM [cytotoxic, full curve] | Potency [9] 11.8 µM [cytotoxic, partial curve, poor fit]

COc1cc(OC2CCN(C)CC2)ccc1Nc1ncc2c(n1)n(C1CCCC1)c(=O)n2C
inconclusive: Potency [2] 26.4 µM [cytotoxic, single point] | Potency [4] 29.6 µM [cytotoxic, single point] | Potency [5] 29.6 µM [cytotoxic, single point]
active: Potency [1] 1860 nM | Potency [3] 18.7 µM | Potency [11] 20.9 µM | Potency [6] 11.8 µM | Potency [7] 25.1 µM | Potency [10] 15.8 µM
